B1: LINE1-mini (parent)
chain: GGCAGAGCUCAACACAGCGUGGCAAAGUGGCUGUGGCUAGACUGCC

The source gives no read counts; variants with many changes may rest on few reads.

The variants in the data set derive from B1. Put plainly: self-cleavage, relative activity (ratio to wild type); higher = more cleavage; in vitro, sequencing; the parent is a self-cleaving ribozyme.
Turning to A6C C8G C18A G33U, the self-cleavage came out at 0.01.

On to A6C C23G C31U G33U U38C A39U, for which the self-cleavage came out at 0.02. A6G A11C C15U: the self-cleavage worked out at 0.01.

Consider A6G A24U G36U U38C, for which the self-cleavage was determined as 0.06. Regarding A6G A11G A14U C23A G27U, the self-cleavage worked out at 0. As to A6C C18U C23U G35U G44A, the self-cleavage stood at 0.02. For the variant A6C G19A A24U G29C, the self-cleavage amounted to 0.66. As for A6C C10U C15A A16G G36C, the self-cleavage amounted to 0.06. As to A6G A11G A16C C31A, the self-cleavage turned out to be 0.02. Turning to A6G A12G C18A, the self-cleavage was 0.01. As for A6C G7U C10U G22A, the self-cleavage amounted to 0.04.

In the case of A6C U28C C46U, the self-cleavage amounted to 1.11. Consider A6C G7U G29U, for which the self-cleavage was 0.02. As for A6G C10A A25C G36A, the self-cleavage was determined as 0.02. As to A6C U34C G44U C46A, the self-cleavage came out at 0.05. Regarding A6G A11C A12U C42U G44A, the self-cleavage was found to be 0.05. Then A6C G7A C10A, with 0.01. As to A6C U9C C31A C46A, the self-cleavage turned out to be 0.01.

As for A6G A16C G30U C46U, the self-cleavage is 0.01. With A6G C8A C46A, the self-cleavage was 0.03. As to A6C G7A A24C G40A, the self-cleavage amounted to 0.17.

A6G C8A G19U: the self-cleavage came to 0.23. Then A6C G7U C15U G36A, with 0.08; and A6C C15G A26G C37U U38C, with 0.01. Turning to A6C C13U A16C A25U A26U A39G U43A, the self-cleavage turned out to be 0.01. A6C G7C G19A G21A G30C U32C G40C: the self-cleavage was determined as 0.05.

Take A6C U28G G33A: the self-cleavage was 0.02. In the case of A6C C10G C23G A26U it was 0.03; in that of A6G C8A G40U A41G, 0.02; in that of A6C C13G A16C G17C U34A, 0.27. On to A6G A12G G29U U34A, for which the self-cleavage stood at 0. Consider A6C U32G G33U, for which the self-cleavage was 0.07. With A6G A14C A26U G35A A39C, the self-cleavage is 0.04. Turning to A6C G27U G35A, the self-cleavage was determined as 0.02. Regarding A6G C8U A12G G22C A26U C31A G33C, the self-cleavage came to 0.01. For A6G C10A C23U, the self-cleavage came out at 0.05.

As to A6G A16U G27C, the self-cleavage amounted to 0.02. For A6G C8G G17A, the self-cleavage was 0.02.

Consider A6C C23A A24C G29A, for which the self-cleavage stood at 0.28. Regarding A6C U20G A25U G29A G30U, the self-cleavage was 0.53. Consider A6G A16C U20A G35U, for which the self-cleavage was 0.02.

A6G C8A A11C G21A A25C: the self-cleavage worked out at 0.01.

On to A6C U9A U20G, for which the self-cleavage was determined as 0.17.

On to A6C C13A C15U A25G C45U, for which the self-cleavage was found to be 0.04. With A6C G35C C45A, the self-cleavage was 0.01.

As for A6G A14G U20G G21C C23A A25G U43A G44U, the self-cleavage is 0.02. With A6G C8A G27C U28C G33C, the self-cleavage was found to be 0.04.

A6C U28A G40C: the self-cleavage is 0.05. As to A6G A14C G17C U34G G35C A41U, the self-cleavage is 0.05.

As for A6G C8U C10A, the self-cleavage was found to be 0.02. For A6G A25G G36A, the self-cleavage worked out at 0.06. On to A6C G29U C37A C42U, for which the self-cleavage was found to be 0.03. For the variant A6C G27A G36U A39C, the self-cleavage was determined as 0.05.

Turning to A6C C13U G22A, the self-cleavage came to 0.03. Turning to A6C C13U G22C, the self-cleavage amounted to 0.08. Take A6C G7U C15G C37A C45U: the self-cleavage was determined as 0.02. Turning to A6G C8U C15A A16G C18G G40A, the self-cleavage amounted to 0.21.

Regarding A6C C18A U34G C46U, the self-cleavage turned out to be 0.01. On to A6G A11U G29C G36C C45A, for which the self-cleavage is 0.01. Then A6C U9A U34G U38C G40C, with 0.1; and A6G A26U G40A, with 0.51; and A6C C10G A24U U28G U38A, with 0.01.

For the variant A6C G7C G17A U20A C31A, the self-cleavage worked out at 0.04. In the case of A6C G17C A24U, the self-cleavage turned out to be 0.3. In the case of A6C U34C C42U it was 0.05; in that of A6C C18G G27U, 1.24. Take A6G A16U C18G G33C A41G: the self-cleavage was 0.01. A6C U20C G22U G35C: the self-cleavage turned out to be 0.03.

For the variant A6C G7U C15U, the self-cleavage was determined as 0.15. As for A6G C8A A25U U38C, the self-cleavage turned out to be 0.12. Turning to A6G A14G G21U C42G, the self-cleavage stood at 0.01. As for A6C U9C A14C A24G C37G C46U, the self-cleavage worked out at 0. Then A6G A12U A26G, with 0.01; and A6G A11U G21C U34G, with 0; and A6C C10A G27C C42U, with 0.02. In the case of A6C U9A A12C, the self-cleavage is 0.01.

With A6C C8U C23G G27A G33A C42A G44A, the self-cleavage came to 0.06. Then A6C C10A U34G, with 0.03; and A6C G7U U28G, with 0.04. Then A6C C10G G33C G35C, with 0.01.

With A6C G27C G33C, the self-cleavage was 0.03. For the variant A6C G17U C37U A39C, the self-cleavage was 0.05. In the case of A6G A24U C42A it was 0.04; in that of A6G C8U U9A C18U C23U C37G G44U, 0.05. Consider A6C C23G U28C C45G, for which the self-cleavage was determined as 0.

Regarding A6C C18U G22U A25C C37U U38C A41G, the self-cleavage worked out at 0.04.

For A6G A16G C37U A41G, the self-cleavage was 0.02. In the case of A6C C23U G40C C42A it was 0.03. A6C U20A G22A: the self-cleavage stood at 0.12. In the case of A6C G21C G29C it was 0.45. Regarding A6G A14U C15A G36C, the self-cleavage turned out to be 0.05. A6C C15U A16C G19U G44C: the self-cleavage amounted to 0.02. In the case of A6C U9A C10G C18G it was 0.02; in that of A6G A26U G29C C31G, 0.02. Regarding A6C G30A G35U G36A A39U C45G, the self-cleavage was found to be 0.02.

With A6C C8U G29A, the self-cleavage was 0.08. As to A6C C10A A26G, the self-cleavage worked out at 0.01.

Regarding A6C G21U G22U G44A, the self-cleavage came to 0.25. With A6G A11G C37A, the self-cleavage was determined as 0.

Turning to A6C C10U C23U C31A, the self-cleavage worked out at 0.05. Then A6C G7U A16C G22U G30C U32A G44U, with 0.02; and A6C C13G G44U, with 0.06. In the case of A6C G7C C10A U20G C37A, the self-cleavage is 0.01. Then A6C C13G G19A, with 0.51; and A6G A25U G40A, with 0.2.

Turning to A6C G7A G19C U34C G40C, the self-cleavage worked out at 0.11.

For the variant A6C C23G G27A G44C, the self-cleavage worked out at 0.25. Then A6C G7U C8A A11U A14C C15G C23G, with 0.01; and A6C G21A A39C U43A, with 0.02. In the case of A6C G7A U20A G21C U32C C45G it was 0.06. For the variant A6C C10A A25U A39U, the self-cleavage was found to be 0.11. In the case of A6G C8A C15U U28A G33U G44U it was 0.66; in that of A6G A16G G19U G27U C31A C37G, 0.01.

As for A6G A14C U34C A39C, the self-cleavage was 0.06. In the case of A6C C23A C31A C37U C45A it was 0.02; in that of A6C C8U C10A, 0.02. Consider A6C C13G U38A C42G, for which the self-cleavage stood at 0.01. On to A6G C8A C10A, for which the self-cleavage stood at 0.01. A6C C10A U28A C42U: the self-cleavage was 0. As to A6G A25U G33A, the self-cleavage worked out at 0.03. Take A6C G19A G30A G36C G40C: the self-cleavage worked out at 0.13. Take A6C C13U A16U G19U: the self-cleavage was 0.08. In the case of A6G A26C G27U it was 0.04; in that of A6G C8A C15G, 0.32. Then A6G C8U G17C, with 0.3; and A6C U9G A26U G35U, with 0.03. Then A6C C13G A16G U20A G21U G27C G44C, with 0.03. Turning to A6C C13U G22A C23U G40U, the self-cleavage turned out to be 0.2.

For A6G A16C C23U, the self-cleavage was determined as 0.03. In the case of A6C G17U C23A, the self-cleavage was found to be 0.11. For A6C G7C C18G, the self-cleavage was determined as 0.05. As to A6C G21A G27C U28A, the self-cleavage was found to be 0.3.

For the variant A6C C13U A16G G40U, the self-cleavage worked out at 0.04. Then A6C G7A U32C, with 0.28. Consider A6C C10A G17C, for which the self-cleavage was 0.06. Regarding A6C G19U G22A G35U G36U, the self-cleavage came out at 0.21. As for A6G A14U C31U C42U, the self-cleavage was 0.02. With A6C G33A C37U, the self-cleavage stood at 0.06. As to A6G C8A C15A G40C, the self-cleavage stood at 0.15.

For the variant A6G A14G G40C C42U, the self-cleavage was determined as 0.06. In the case of A6G A12C U43A, the self-cleavage came to 0.03. Then A6G A11C A14G G40A, with 0. In the case of A6G A16G G17C C42G it was 0.02; in that of A6C C18A G30A U38G, 0.02. Turning to A6C G29A U34C G44U, the self-cleavage amounted to 0.03.

For the variant A6C C18G G22A U38G, the self-cleavage was 0.02. For A6C G7A G36U C37U C46G, the self-cleavage was found to be 0.02. Then A6C U9C A16U U32A G44C, with 0.04; and A6C C10A G30U G44U, with 0.02; and A6G C8G A12C A16C G19A G22A C42A, with 0.01. In the case of A6C U20G C42A it was 0.13. In the case of A6C G19U U34A A39G, the self-cleavage was 0.04. Then A6C U9G A24G C45G, with 0.02; and A6G A25U C42U, with 0.19; and A6C C10U U28G C45G, with 0.02. In the case of A6C U9A G36C it was 0.02; in that of A6G C8G C18U C31U C42U, 0.03; in that of A6C G21U G36A, 0.05. In the case of A6G A16G U43C it was 0.07; in that of A6G C8U U9G A11U U34A, 0.01; in that of A6C C10A G40U, 0.06. Take A6C G40A C42G: the self-cleavage worked out at 0.02.

As for A6C U20A G27U, the self-cleavage came out at 0.39. For the variant A6G A12U C15G G17U U28A, the self-cleavage worked out at 0.02. As for A6C G7C C46A, the self-cleavage was 0.23. Consider A6G A16U C23U A26G G30U, for which the self-cleavage amounted to 0.01. In the case of A6G A12U G29U C46G it was 0.02.

(Values after the RNAGym collection of RNA variant scans (doi:10.7554/elife.90254).)
